The labels stand for the following.
B1: chr12:7080122:7080123:+_ENSG00000126749_ENST00000261406|hu_mus|FALSE|FALSE (ssRNA)
RNA: GGGAGUUCUACAGUCCGACGAUCCCGGAGCUUCUUAGGCGGCGUAGUCUCCCAGUCCUGCUCCUGCACUGAAAAUCGCCGCUCACGAGGUUGGAAGCCACCACUGGCCGCAGACAUCUUGUAGGCAGACCGGAAGUUGCACCGCAACAGAGGAUUGAGCAUCA
B2: chr1:212156110:212156111:-_ENSG00000143493_ENST00000366992|hu_mus|FALSE|FALSE (ssRNA)
RNA: GGGAGUUCUACAGUCCGACGAUCUCCAUGAGCUGCGAUGCCCCUGUUGCUAUGGUAACAGCAUUCUUGAGCUAAUUUGACUAAAUCAGAAGAUCUGGGGGAAGAGCCUACAUUUCCGGGAACUACACUGAAGUAAUGUUUAAUCAACAGAGGAUUGAGCAUCA
B3: 43591537_43591657_148_5pUTR_ENSMUSG00000028467_ENSMUST00000030189|mouse|control|control (ssRNA)
RNA: GGGAGUUCUACAGUCCGACGAUCGGCGGUGCCGCGGUACCUGCCCGCAAAGCACCGCCUCUGGGACCCGCCCAGGAGCUCCCGGCGACCUUCGGCCCCGCCCCGGGCUGCGGCUCCAGCGGCUCCAGGGCUGGGUACCGGGUCCAACAGAGGAUUGAGCAUCA
B4: chr10:1038552:1038553:+_ENSG00000107937_ENST00000545048|hu_mus|FALSE|FALSE (ssRNA)
RNA: GGGAGUUCUACAGUCCGACGAUCAUAAAACGGAUGGAUAUCAUCCAAUUUGGGGAAAUCCGACAGAAUCUGUGACAGUCUGUCAUGGUAAUUCUGUUGAGUAAAUUUGACUUUUCUCAUAUAAAAAUGUCGAAUCCGAUGAAUCAACAGAGGAUUGAGCAUCA
B5: chr19:38862730:38862731:-_ENSMUSG00000024999_ENSMUST00000025963|mus_hu|FALSE|FALSE (ssRNA)
RNA: GGGAGUUCUACAGUCCGACGAUCCUUAGGCCACUCCUAGAAUAUGGGAAUAGCUGUUACAUAAAAUACUGUUUUAUAAUUAUAUUAAUAAGAAAAAGCAUUUUACCUGUUCCAAGAGGGGAAAAAAGCUCCUCAUUGAGUAUCCAACAGAGGAUUGAGCAUCA
B6: chrX:91780989:91780990:-_ENSMUSG00000025151_ENSMUST00000026142|mus_mus|motif|central (ssRNA)
RNA: GGGAGUUCUACAGUCCGACGAUCCUCUCUAGAUAGCGUGUUUUGAAGGAACCUGAGGCUUCAGCCUCACUCAGGGAAAACGGUUGCAAAUGAUGAGCAGUAUCUGACAAUUUACUCAACCCAGAAGAAGCCAAUGGCACCGAACAACAGAGGAUUGAGCAUCA
B7: 44134987_44135107_120_5pUTR_ENSMUSG00000032123_ENSMUST00000054708|mouse|control|control (ssRNA)
RNA: GGGAGUUCUACAGUCCGACGAUCGGCCGCCGCCCCGCCGCCUACUCAGCUAACUGGUAAGCCAGGAACAAUCCCGUGGCCUCGGCAGCCGGCAGUGCGGCUCCCAACCCGCAGAGGAUUCCGGCGCCAGCGGGAACAAAACCCCAACAGAGGAUUGAGCAUCA
B8: chr1:46159212:46159213:+_ENSG00000159596_ENST00000372025|hu_mus|hu_hu_hu_mus_True|1_8 (ssRNA)
RNA: GGGAGUUCUACAGUCCGACGAUCUCUGAUCCCUCCCAAGAAAGCUAGGAAACCGGCUCCAUAAGCCAUCUGAGUGAAAGCUAGGACGGGGAUAUAAGACUUUGUUAUUACCAUGAGAAGUGGGGGAGCAACGAAGGGGAUUAGCAACAGAGGAUUGAGCAUCA
B9: chr4:115894766:115894767:+_ENSMUSG00000028698_ENSMUST00000030464|mus_hu|mus_mus_mus_hu_True|58_58 (ssRNA)
RNA: GGGAGUUCUACAGUCCGACGAUCUUCCACACGGAAAUGUACUUCGGGUUUUCCAACGGCCAGUACCAGUCCGGCCAACUACUAGGAACAGGGUCCUCCCCCUCUCUCCUACAGAACACAACAAAAUGCCCCCGAACUUUCAAGCAACAGAGGAUUGAGCAUCA
B10: chr17:56552419:56552420:-_ENSMUSG00000013236_ENSMUST00000086828|mus_mus|mus_mus_mus_hu_False|88_108 (ssRNA)
RNA: GGGAGUUCUACAGUCCGACGAUCAAAGUUUUUUUCUUUUAAAAAAAAAAGAAAAAAACGGGAUACAGUUACACUGAGAGUUUUAAAAGAAAGCUGGAUUCUGGUCCCAGCCCAGUGUCCCCAGGCUGCAGAGCGGGGAGGAGCCAACAGAGGAUUGAGCAUCA
B11: 59478537_59479167_1274_CDS_ENSMUSG00000025237_ENSMUST00000026267|mouse|control|control (ssRNA)
RNA: GGGAGUUCUACAGUCCGACGAUCGUUCUUGCAGUGACCACUGACCAAAGGAGAAGUCCGUGCUGGGGGAGGGAGGCCCACGUGCUGGGGGCACAGGAGACCUGCCUGGGGGCUGGGGGGAUAGCCAAACACCUCUACUUUUGGCAACAGAGGAUUGAGCAUCA
B12: chr11:126104937:126104938:+_ENSG00000197798_ENST00000360194|hu_mus|FALSE|FALSE (ssRNA)
RNA: GGGAGUUCUACAGUCCGACGAUCCUUCCUGGGCUUUUUGGUGGGGGGUUCGCCAUCAUUGAAGAAUCCAAAAAUCUUGUUUUUAUCAGAGGCCUGGCUCCCUGUAGAAGCCAUCCAGUUUCGCGUCUGCUCCAAACGCCACCGCAACAGAGGAUUGAGCAUCA
B13: 56362179_56362299_12499_CDS_ENSG00000151914_ENST00000244364|human|control|control (ssRNA)
RNA: GGGAGUUCUACAGUCCGACGAUCAUGGACAUUAAGCUGCUCCUUGGCUGUUUCCGGUAAACCUCCCAGCGGUUUAGAUGCCAACAGAUGACGCUCCGUGUCAGUCAGCCACUGCUGCAAAUCCUCAAUUUCGCCAUGGAACCCCAACAGAGGAUUGAGCAUCA
B14: chr6:86238017:86238018:-_ENSG00000135317_ENST00000369627|hu_mus|FALSE|FALSE (ssRNA)
RNA: GGGAGUUCUACAGUCCGACGAUCCGGGUGCUGCACAAGUUUCUGCAGAUACUCCUGGAACUCCUCUCUCUUCGACUUCAAAAACUCAUAGUUUUUGGGGCCAAUGAUCCUUUUGGAUGGAAGCUGAGCAUCAGGAAAUGUGCCCAACAGAGGAUUGAGCAUCA
B15: chr17:57652765:57652766:+_ENSG00000108406_ENST00000251241|hu_mus|FALSE|FALSE (ssRNA)
RNA: GGGAGUUCUACAGUCCGACGAUCAUCAUAAUCAUAGUCAACAGACUCCGCCAUCUGAAAGAGCAGCUCGCAACUCUUCUCUAUCUCAAACUGGCCAGUCAGAAAAACUAAGAUGUCUCCAGCCAUUUCAUUCAAAUGAAUAUCCAACAGAGGAUUGAGCAUCA
B16: chr7:54825262:54825263:-_ENSG00000132432_ENST00000352861|hu_hu|hu_hu_hu_mus_False|58_108 (ssRNA)
RNA: GGGAGUUCUACAGUCCGACGAUCCUGACUUGGCUCAUCCACAAACUGCAUUACCUGAUCCAUGUUUGUUGGAUGGCACACCUAAAACGUAGAGACACGUAGCUCAGGAGAGAACCGAGCCCAACGGAACCGGAAGCUGGCAACCAACAGAGGAUUGAGCAUCA
B17: 72060935_72062879_1136_CDS_ENSMUSG00000021076_ENSMUST00000021479|mouse|control|control (ssRNA)
RNA: GGGAGUUCUACAGUCCGACGAUCGUCUUGCAAUGCUCCAAAAACAGCCCCUCCCAACCAGGCCACACAAUUAGCUUUUGCAGGUGGAGUAUGAAUUCGGAAGUUCUUGGUGCCAAGUGUCUUUUUGUACUUUGGCUUUUCUACCAACAGAGGAUUGAGCAUCA
B18: 201284089_201284209_525_CDS_ENSG00000196141_ENST00000360760|human|control|control (ssRNA)
RNA: GGGAGUUCUACAGUCCGACGAUCACGAAGUGCCUUUGAAGGUUCCUCAAGUAUCGAGAUCUUUUUCUCACGAGGGAUAAGGGCUGGUUUUUCGUUAGCAGAAUCUGUGGACGAGCUGUCCUUCUCGCAGCCAUUCAUGGGGCCCAACAGAGGAUUGAGCAUCA
B19: chr14:90870812:90870813:+_ENSG00000198668_ENST00000553542|hu_mus|motif|central (ssRNA)
RNA: GGGAGUUCUACAGUCCGACGAUCAUCAAUAUCUGCUUCUCUGAUCAUUUCAUCUACUUCUUCAUCUGUUAGCUUUUCUCCGGAGUUUGUCAUGACGUGGCGCAGUUCUGCCGCACUGAUGUAACCAUUCCCAUCCUUGUCAAACAACAGAGGAUUGAGCAUCA
B20: chr3:57561382:57561383:-_ENSG00000168374_ENST00000303436|hu_hu|motif|central (ssRNA)
RNA: GGGAGUUCUACAGUCCGACGAUCUAGCAGCACUGCAUCUCUCAAUUCAUCUACCAGAAGCAUUUUCUGCAGCUCAUCUGCGGCUUCCUGAAUUCUUUCACGAUCGUUGCUAUCUACCACAAAAAUAAGACCCUGGGUAUUCUGCAACAGAGGAUUGAGCAUCA
B21: 106385328_106385530_742_CDS_ENSMUSG00000041506_ENSMUST00000047721|mouse|control|control (ssRNA)
RNA: GGGAGUUCUACAGUCCGACGAUCCCGGUGUCCCGUGAAGGUGUACAGGUGCUGGCAGCUCUGGGCCUCCCAAAUGAGAAUGAGCUUGCUGCGGUCGCCAGAGGCGAGGUACUUGCCAUCAGAGGAGAUGGCCAUGCAGAGGACCAACAGAGGAUUGAGCAUCA
B22: chr6:134305517:134305518:+_ENSG00000028839_ENST00000367871|hu_hu|FALSE|FALSE (ssRNA)
RNA: GGGAGUUCUACAGUCCGACGAUCGUUACACACUGCCAGAACGUUAACAACCUUAAAAUCUGUAAAUAUUACCUGAAAACCUAGUUUCUGCAGACUACGGGCUAAGCGUCUGGCACCAAAUUUAGCUUCUUCUUCACUUGUUGCCAACAGAGGAUUGAGCAUCA

This is one part of the list.

The test concerns the target T1, UNK ZnF1-3 (human, UniProt Q9C0B0 31-174).
T1 sequence: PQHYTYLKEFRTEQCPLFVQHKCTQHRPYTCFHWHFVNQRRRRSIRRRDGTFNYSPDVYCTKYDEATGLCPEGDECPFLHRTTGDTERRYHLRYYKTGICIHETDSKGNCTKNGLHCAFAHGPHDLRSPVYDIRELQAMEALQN
Kind of test: nsRBNS (natural sequence RNA bind-n-seq); RBNS binding buffer (assumed for nsRBNS): 25 mM Tris pH 7.5, 150 mM KCl, 3 mM MgCl2, 0.01% Triton X-100, 500 ug/ml BSA, 20 U/ml SUPERase-In, 4 C; UNK is unkempt and MSI1 is Musashi-1; names of the RNAs are library labels; protein concentration not given here; high values mean tight binding.
For the molecule B1, the binding signal is 0.766 enrichment R.
In turn, B2 returned a binding signal of 1.91 enrichment R.
B3: the binding signal was 0.0895 enrichment R.
Regarding B4, the binding signal turned out to be 0.498 enrichment R.
With B5, the binding signal turned out to be 1.37 enrichment R.
Molecule B6 registered a binding signal of 1.53 enrichment R.
In the case of B7, the binding signal amounted to 0.487 enrichment R.
The result for B8 reads 1.97 enrichment R; that for B9, 0.99 enrichment R; that for B10, 1.29 enrichment R.
On to B11, for which the binding signal stood at 1.62 enrichment R.
On to B12, for which the binding signal is 0.933 enrichment R.
Molecule B13 displayed a binding signal of 1.05 enrichment R.
B14 returned a binding signal of 1.09 enrichment R.
Turning to B15, the binding signal amounted to 1.23 enrichment R.
With B16, the binding signal stood at 0.885 enrichment R.
In turn, B17 came in with a binding signal of 0.826 enrichment R.
The molecule B18 came in with a binding signal of 0.45 enrichment R.
Consider B19, for which the binding signal came out at 0.572 enrichment R.
As for B20, the binding signal came out at 1.21 enrichment R.
In the case of B21, the binding signal worked out at 1.4 enrichment R.
As for B22, the binding signal came to 0.788 enrichment R.

Values taken from publication PMC12136788.
